Results reported in the supplement of paper PMC8728848.
This is one part of the list.

What was measured:
Test in all cases: glycan array binding signal (z-score within array); higher = stronger binding
Settings in all cases: glycan notation: IUPAC condensed, linker removed
Gal(a1-3)Gal = target: Gal(a1-3)Gal
How it was run: (§1)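 Arrays were curated from the Consortium for Functional Glycomics database, 3228 in total, and kept only where the protein sequence was available. Binding is expressed as a within-array Z-score. This score was averaged across arrays of the same protein sequence at different concentrations or buffers and across linkers, and negative values can be read as non-binding.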

Gal(a1-3)Gal(b1-3)GlcNAc = target: Gal(a1-3)Gal(b1-3)GlcNAc
How it was run: as §1

[1] = target: Gal(a1-3)Gal(b1-3)GlcNAc(b1-2)Man
How it was run: as §1

[2] = target: Gal(a1-3)Gal(b1-3)GlcNAc(b1-2)Man(a1-3)[Gal(a1-3)Gal(b1-3)GlcNAc(b1-2)Man(a1-6)]Man(b1-4)GlcNAc(b1-4)GlcNAc
How it was run: as §1

[3] = target: Gal(a1-3)Gal(b1-3)GlcNAc(b1-3)GalNAc
How it was run: as §1

[4] = target: Gal(a1-3)Gal(b1-3)GlcNAc(b1-6)GalNAc
How it was run: as §1

[5] = target: Gal(a1-3)Gal(b1-3)[Fuc(a1-4)]GlcNAc(b1-2)Man(a1-3)[Gal(a1-3)Gal(b1-3)[Fuc(a1-4)]GlcNAc(b1-2)Man(a1-6)]Man(b1-4)GlcNAc(b1-4)GlcNAc
How it was run: as §1

Gal(a1-3)Gal(b1-4)Glc = target: Gal(a1-3)Gal(b1-4)Glc
How it was run: as §1

Gal(a1-3)Gal(b1-4)GlcNAc = target: Gal(a1-3)Gal(b1-4)GlcNAc
How it was run: as §1

[6] = target: Gal(a1-3)Gal(b1-4)GlcNAc(b1-2)Man
How it was run: as §1

[7] = target: Gal(a1-3)Gal(b1-4)GlcNAc(b1-2)Man(a1-3)[Gal(a1-3)Gal(b1-4)GlcNAc(b1-2)Man(a1-6)]Man(b1-4)GlcNAc(b1-4)GlcNAc
How it was run: as §1

[8] = target: Gal(a1-3)Gal(b1-4)GlcNAc(b1-3)GalNAc
How it was run: as §1

[9] = target: Gal(a1-3)Gal(b1-4)GlcNAc(b1-6)GalNAc
How it was run: as §1

[10] = target: Gal(a1-3)Gal(b1-4)[Fuc(a1-3)]GlcNAc
How it was run: as §1

[11] = target: Gal(a1-3)Gal(b1-4)[Fuc(a1-3)]GlcNAc(b1-2)Man(a1-3)[Gal(a1-3)Gal(b1-4)[Fuc(a1-3)]GlcNAc(b1-2)Man(a1-6)]Man(b1-4)GlcNAc(b1-4)GlcNAc
How it was run: as §1

Gal(a1-3)GalNAc = target: Gal(a1-3)GalNAc
How it was run: as §1

[12] = target: Gal(a1-3)[Gal(a1-4)]Gal(b1-4)GlcNAc
How it was run: as §1

[13] = target: Gal(a1-4)Gal(b1-3)GlcNAc(b1-2)Man(a1-3)[Gal(a1-4)Gal(b1-3)GlcNAc(b1-2)Man(a1-6)]Man(b1-4)GlcNAc(b1-4)GlcNAc
How it was run: as §1

Gal(a1-4)Gal(b1-4)Glc = target: Gal(a1-4)Gal(b1-4)Glc
How it was run: as §1

Gal(a1-4)Gal(b1-4)GlcNAc = target: Gal(a1-4)Gal(b1-4)GlcNAc
How it was run: as §1

[14] = target: Gal(a1-4)Gal(b1-4)GlcNAc(b1-2)Man(a1-3)[Gal(a1-4)Gal(b1-4)GlcNAc(b1-2)Man(a1-6)]Man(b1-4)GlcNAc(b1-4)GlcNAc
How it was run: as §1

[15] = target: Gal(a1-4)Gal(b1-4)GlcNAc(b1-3)Gal(b1-4)Glc
How it was run: as §1

Gal(a1-4)GlcNAc = target: Gal(a1-4)GlcNAc
How it was run: as §1

Gal(a1-6)Glc = target: Gal(a1-6)Glc
How it was run: as §1

Gal(b1-2)Gal = target: Gal(b1-2)Gal
How it was run: as §1

Gal(b1-3)Gal = target: Gal(b1-3)Gal
How it was run: as §1

Gal(b1-3)Gal(b1-4)GlcNAc = target: Gal(b1-3)Gal(b1-4)GlcNAc
How it was run: as §1

Gal(b1-3)GalNAc = target: Gal(b1-3)GalNAc
How it was run: as §1

[16] = target: Gal(b1-3)GalNAc(a1-3)[Fuc(a1-2)]Gal(b1-4)Glc
How it was run: as §1

[17] = target: Gal(b1-3)GalNAc(a1-3)[Fuc(a1-2)]Gal(b1-4)GlcNAc
How it was run: as §1

Gal(b1-3)GalNAc(b1-3)Gal = target: Gal(b1-3)GalNAc(b1-3)Gal
How it was run: as §1

[18] = target: Gal(b1-3)GalNAc(b1-3)Gal(a1-4)Gal(b1-4)Glc
How it was run: as §1

[19] = target: Gal(b1-3)GalNAc(b1-4)Gal(b1-4)Glc
How it was run: as §1

[20] = target: Gal(b1-3)GalNAc(b1-4)[Neu5Ac(a2-3)]Gal(b1-4)Glc
How it was run: as §1

Gal(b1-3)GlcNAc = target: Gal(b1-3)GlcNAc
How it was run: as §1

[21] = target: Gal(b1-3)GlcNAc(a1-3)Gal(b1-4)GlcNAc
How it was run: as §1

[22] = target: Gal(b1-3)GlcNAc(a1-6)Gal(b1-4)GlcNAc
How it was run: as §1

Gal(b1-3)GlcNAc(b1-2)Man = target: Gal(b1-3)GlcNAc(b1-2)Man
How it was run: as §1

B1: Dectin2 (Homo sapiens), Q6EIG7 (protein)
chain: MMQEQQPQSTEKRGWLSLRLWSVAGISIALLSACFIVSCVVTYHFTYGETGKRLSELHSYHSSLTCFSEGTKVPAWGCCPASWKSFGSSCYFISSEEKVWSKSEQNCVEMGAHLVVFNTEAEQNFIVQQLNESFSYFLGLSDPQGNNNWQWIDKTPYEKNVRFWHLGEPNHSAEQCASIVFWKPTGWGWNDVICETRRNSICEMNKIYL
For B1, the “glycan array binding signal (z-score)” value (Gal(a1-3)Gal) was -0.131, the “glycan array binding signal (z-score)” value (Gal(a1-3)Gal(b1-3)GlcNAc) was -0.118 and the “glycan array binding signal (z-score)” value [1] was -0.168. For the same binder, the “glycan array binding signal (z-score)” value [2] was 0.119, the “glycan array binding signal (z-score)” value [3] was -0.191 and the “glycan array binding signal (z-score)” value [4] was -0.188. The “glycan array binding signal (z-score)” value [5] was 0.523, the “glycan array binding signal (z-score)” value (Gal(a1-3)Gal(b1-4)Glc) was -0.153 and the “glycan array binding signal (z-score)” value (Gal(a1-3)Gal(b1-4)GlcNAc) was -0.188. The “glycan array binding signal (z-score)” value [6] was -0.15, the “glycan array binding signal (z-score)” value [7] was -0.094 and the “glycan array binding signal (z-score)” value [8] was -0.21. For the same binder, the “glycan array binding signal (z-score)” value [9] was -0.188, the “glycan array binding signal (z-score)” value [10] was -0.135 and the “glycan array binding signal (z-score)” value [11] was 0.151. For the same binder, the “glycan array binding signal (z-score)” value (Gal(a1-3)GalNAc) was -0.124, the “glycan array binding signal (z-score)” value [12] was -0.202 and the “glycan array binding signal (z-score)” value [13] was -0.112. For the same binder, the “glycan array binding signal (z-score)” value (Gal(a1-4)Gal(b1-4)Glc) was -0.139, the “glycan array binding signal (z-score)” value (Gal(a1-4)Gal(b1-4)GlcNAc) was -0.141 and the “glycan array binding signal (z-score)” value [14] was -0.02. For the same binder, the “glycan array binding signal (z-score)” value [15] was -0.164, the “glycan array binding signal (z-score)” value (Gal(a1-4)GlcNAc) was -0.152 and the “glycan array binding signal (z-score)” value (Gal(a1-6)Glc) was -0.105. The “glycan array binding signal (z-score)” value (Gal(b1-2)Gal) was -0.153, the “glycan array binding signal (z-score)” value (Gal(b1-3)Gal) was -0.111 and the “glycan array binding signal (z-score)” value (Gal(b1-3)Gal(b1-4)GlcNAc) was -0.196. The “glycan array binding signal (z-score)” value (Gal(b1-3)GalNAc) was -0.148, the “glycan array binding signal (z-score)” value [16] was -0.194 and the “glycan array binding signal (z-score)” value [17] was -0.21. For the same binder, the “glycan array binding signal (z-score)” value (Gal(b1-3)GalNAc(b1-3)Gal) was -0.163, the “glycan array binding signal (z-score)” value [18] was -0.183 and the “glycan array binding signal (z-score)” value [19] was -0.134. For the same binder, the “glycan array binding signal (z-score)” value [20] was -0.198, the “glycan array binding signal (z-score)” value (Gal(b1-3)GlcNAc) was -0.105 and the “glycan array binding signal (z-score)” value [21] was -0.186. The “glycan array binding signal (z-score)” value [22] was -0.206 and the “glycan array binding signal (z-score)” value (Gal(b1-3)GlcNAc(b1-2)Man) was 0.191.
